Source: article PMC11149917, “Translational and Therapeutic Evaluation of RAS-GTP Inhibition by RMC-6236 in RAS-Driven Cancers” (Cancer Discovery, 2024)
The source gives many values for each of these; only a part stands here.

System: PRISM panel of 845 cancer cell lines
Test: PRISM assay
Assay type: cell-based, human
Description: The PRISM cell set comprised 845 cell lines representing more than 45 lineages (see Supplementary Table S1 for cell line information), which largely overlapped with the Cancer Cell Line Encyclopedia; https://portals.broadinstitute.org/ccle). Cell lines were grown in RPMI without phenol red and supplemented with 10% or 20% FBS for adherent and suspended lines, respectively. Parental cell lines were stably infected with a unique 24-nucleotide DNA barcode via lentiviral transduction and blasticidin selection. After selection, barcoded cell lines were expanded and subjected to quality control (Mycoplasma contamination test, an SNP test for confirming cell line identity, and barcode ID confirmation). Approved cell lines were then pooled (20–25 cell lines per pool) based on doubling time similarity and frozen in assay-ready vials.
RMC-6236 was added to 384-well plates at 8-point concentration with 3-fold dilutions in triplicate. These assay-ready plates were then seeded with the thawed cell line pools. Adherent cell pools were plated at 1,250 cells per well, whereas suspension and mixed adherent/suspension pools were plated at 2,000 cells per well. Treated cells were incubated for 5 days, and then lysed. Lysate plates were collapsed together prior to barcode amplification and detection.
Each cell line's unique barcode is located in the 3′UTR of the blasticidin-resistance gene and therefore is expressed as mRNA. Total mRNA was captured using magnetic particles that recognize polyA sequences. Captured mRNA was reverse-transcribed into cDNA and then the sequence containing the unique PRISM barcode was amplified using PCR. Finally, Luminex beads that recognize the specific barcode sequences in the cell set were hybridized to the PCR products and detected using a Luminex scanner which reports the signal as a median fluorescent intensity (MFI).
• Each detection well contained 10 control barcodes in increasing abundances as spike-in controls. For each plate, we first create a reference profile by calculating the median of the log2(MFI) values across negative control wells for each of these spiked-in barcodes. • For each well, a monotonic smooth p-spline was fitted to map the spike-in control levels to the reference profile. Next, we transform the log2(MFI) for each cell barcode using the fitted spline to allow well-to-well comparisons by correcting for amplification and detection artifacts. • Next, the separability between negative and positive control treatments was assessed. In particular, we calculated the error rate of the optimum simple threshold classifier between the control samples for each cell line and plate combination. The error rate is a measure of the overlap of the two control sets and was defined as error = (FP + FN)/n, where FP is false positives, FN is false negatives, and n is the total number of controls. A threshold was set between the distributions of positive and negative control log2(MFI) values (with everything below the threshold said to be positive and above said to be negative) such that this value is minimized. Additionally, we also calculated the dynamic range of each cell line. […] Additionally, any cell line that had less than 2 passing replicates was also omitted for the sake of reproducibility. Finally, we computed viability by normalizing with respect to the median negative control for each plate.
For every gene with nonsilent mutations in at least four cell lines, we compared the AUC values between cells with and without those mutations using a t test. This analysis was carried out for (i) the full data set; (ii) excluding cell lines with nonsilent KRAS mutations; and (iii) excluding cell lines that have either KRAS or NRAS nonsilent mutations.

CCn1c(-c2cc(N3CCN(C)CC3)cnc2[C@H](C)OC)c2c3cc(ccc31)-c1csc(n1)C[C@H](NC(=O)[C@H]1C[C@@H]1C)C(=O)N1CCC[C@H](N1)C(=O)OCC(C)(C)C2 [RMC-6236]
RMC-6236: RevMed PRISM: AUC (EGI1_BILIARY_TRACT, KRAS p.G12D): 0.441 | RMC-6236: RevMed PRISM: AUC (EKVX_LUNG): 0.752 | RMC-6236: RevMed PRISM: AUC (EM2_HAEMATOPOIETIC_AND_LYMPHOID_TISSUE): 0.557 | RMC-6236: RevMed PRISM: AUC (EMTOKA_ENDOMETRIUM): 0.6623 | RMC-6236: RevMed PRISM: AUC (ES2_OVARY): 0.8862 | RMC-6236: RevMed PRISM: AUC (ESS1_ENDOMETRIUM): 0.6148 | RMC-6236: RevMed PRISM: AUC (FLO1_OESOPHAGUS): 1 | RMC-6236: RevMed PRISM: AUC (FTC133_THYROID): 0.7242 | RMC-6236: RevMed PRISM: AUC (FTC238_THYROID): 1 | RMC-6236: RevMed PRISM: AUC (G361_SKIN): 1 | RMC-6236: RevMed PRISM: AUC (G415_BILIARY_TRACT, KRAS p.G13D): 0.6508 | RMC-6236: RevMed PRISM: AUC (GAMG_CENTRAL_NERVOUS_SYSTEM): 0.7635 | RMC-6236: RevMed PRISM: AUC (GB1_CENTRAL_NERVOUS_SYSTEM): 1 | RMC-6236: RevMed PRISM: AUC (GCT_SOFT_TISSUE): 0.8928 | RMC-6236: RevMed PRISM: AUC (GIMEN_AUTONOMIC_GANGLIA): 0.8496 | RMC-6236: RevMed PRISM: AUC (GOS3_CENTRAL_NERVOUS_SYSTEM): 0.7506 | RMC-6236: RevMed PRISM: AUC (GP2D_LARGE_INTESTINE, KRAS p.G12D): 0.6016 | RMC-6236: RevMed PRISM: AUC (GSS_STOMACH): 0.7048 | RMC-6236: RevMed PRISM: AUC (GSU_STOMACH, KRAS p.G12D): 0.296 | RMC-6236: RevMed PRISM: AUC (H157_UPPER_AERODIGESTIVE_TRACT): 0.5376 | RMC-6236: RevMed PRISM: AUC (H376_UPPER_AERODIGESTIVE_TRACT): 0.6121 | RMC-6236: RevMed PRISM: AUC (H413_UPPER_AERODIGESTIVE_TRACT): 0.6014 | RMC-6236: RevMed PRISM: AUC (HCA1_CERVIX): 0.6491 | RMC-6236: RevMed PRISM: AUC (HCC15_LUNG, NRAS p.C186F, p.Q61K): 0.752 | RMC-6236: RevMed PRISM: AUC (HCC33_LUNG): 1 | RMC-6236: RevMed PRISM: AUC (HCC38_BREAST): 0.6233 | RMC-6236: RevMed PRISM: AUC (HCC44_LUNG, KRAS p.G12C): 0.5816 | RMC-6236: RevMed PRISM: AUC (HCC56_LARGE_INTESTINE, KRAS p.G12V): 0.2532 | RMC-6236: RevMed PRISM: AUC (HCC95_LUNG): 0.6032 | RMC-6236: RevMed PRISM: AUC (HCC515_LUNG, KRAS p.G13D): 0.906 | RMC-6236: RevMed PRISM: AUC (HCC1143_BREAST): 0.6796 | RMC-6236: RevMed PRISM: AUC (HCC1359_LUNG): 0.8757 | RMC-6236: RevMed PRISM: AUC (HCC1395_BREAST): 0.7557 | RMC-6236: RevMed PRISM: AUC (HCC1419_BREAST, HRAS p.R128W): 0.7992 | RMC-6236: RevMed PRISM: AUC (HCC1428_BREAST): 0.8123 | RMC-6236: RevMed PRISM: AUC (HCC1438_LUNG): 0.9283 | RMC-6236: RevMed PRISM: AUC (HCC1806_BREAST): 0.8742 | RMC-6236: RevMed PRISM: AUC (HCC1954_BREAST): 0.6911 | RMC-6236: RevMed PRISM: AUC (HCC2108_LUNG, KRAS p.Q61H): 0.5828 | RMC-6236: RevMed PRISM: AUC (HCC4006_LUNG): 0.5176 | RMC-6236: RevMed PRISM: AUC (HDMYZ_HAEMATOPOIETIC_AND_LYMPHOID_TISSUE, NRAS p.G13D): 0.7306 | RMC-6236: RevMed PRISM: AUC (HEC1B_ENDOMETRIUM, KRAS p.G12D): 0.615 | RMC-6236: RevMed PRISM: AUC (HEC1_ENDOMETRIUM, KRAS p.G12D): 0.8171 | RMC-6236: RevMed PRISM: AUC (HEC6_ENDOMETRIUM): 0.9233 | RMC-6236: RevMed PRISM: AUC (HEC108_ENDOMETRIUM): 0.7701 | RMC-6236: RevMed PRISM: AUC (HEL9217_HAEMATOPOIETIC_AND_LYMPHOID_TISSUE): 0.7653 | RMC-6236: RevMed PRISM: AUC (HEL_HAEMATOPOIETIC_AND_LYMPHOID_TISSUE): 0.7938 | RMC-6236: RevMed PRISM: AUC (HEP3B217_LIVER): 0.9272 | RMC-6236: RevMed PRISM: AUC (HGC27_STOMACH): 0.8085 | RMC-6236: RevMed PRISM: AUC (HH_HAEMATOPOIETIC_AND_LYMPHOID_TISSUE): 0.8642 | RMC-6236: RevMed PRISM: AUC (HKGZCC_BILIARY_TRACT, KRAS p.Q61H): 0.4553 | RMC-6236: RevMed PRISM: AUC (HLF_LIVER): 0.7353 | RMC-6236: RevMed PRISM: AUC (HMC18_BREAST, KRAS p.G12V): 0.3209 | RMC-6236: RevMed PRISM: AUC (HPAC_PANCREAS, KRAS p.G12D): 0.3943 | RMC-6236: RevMed PRISM: AUC (HPAFII_PANCREAS, KRAS p.G12D): 0.337 | RMC-6236: RevMed PRISM: AUC (HS294T_SKIN): 0.8481 | RMC-6236: RevMed PRISM: AUC (HS683_CENTRAL_NERVOUS_SYSTEM): 0.7931 | RMC-6236: RevMed PRISM: AUC (HS729_SOFT_TISSUE): 0.9268 | RMC-6236: RevMed PRISM: AUC (HS766T_PANCREAS, KRAS p.Q61H): 0.4003 | RMC-6236: RevMed PRISM: AUC (HS944T_SKIN, NRAS p.Q61K): 0.4942 | RMC-6236: RevMed PRISM: AUC (HSC1_SKIN): 0.6332 | RMC-6236: RevMed PRISM: AUC (HSC2_UPPER_AERODIGESTIVE_TRACT): 0.6438 | RMC-6236: RevMed PRISM: AUC (HSC3_UPPER_AERODIGESTIVE_TRACT): 0.5856 | RMC-6236: RevMed PRISM: AUC (HSKTC_OVARY): 0.9967 | RMC-6236: RevMed PRISM: AUC (HT3_CERVIX): 0.6913 | RMC-6236: RevMed PRISM: AUC (HT144_SKIN): 0.8589 | RMC-6236: RevMed PRISM: AUC (HT1197_URINARY_TRACT, NRAS p.Q61R): 0.8356 | RMC-6236: RevMed PRISM: AUC (HT1376_URINARY_TRACT): 0.7104 | RMC-6236: RevMed PRISM: AUC (HUCCT1_BILIARY_TRACT, KRAS p.G12D): 0.4281 | RMC-6236: RevMed PRISM: AUC (HUG1N_STOMACH): 0.8989 | RMC-6236: RevMed PRISM: AUC (HUH6_LIVER): 0.8747 | RMC-6236: RevMed PRISM: AUC (HUH28_BILIARY_TRACT): 0.9593 | RMC-6236: RevMed PRISM: AUC (HUO9_BONE): 1 | RMC-6236: RevMed PRISM: AUC (HUPT3_PANCREAS, KRAS p.G12R): 0.4399 | RMC-6236: RevMed PRISM: AUC (HUPT4_PANCREAS, KRAS p.G12V): 0.3159 | RMC-6236: RevMed PRISM: AUC (IALM_LUNG, KRAS p.G12C): 0.4472 | RMC-6236: RevMed PRISM: AUC (ICC8_BILIARY_TRACT): 0.8664 | RMC-6236: RevMed PRISM: AUC (ICC10_BILIARY_TRACT): 0.4792 | RMC-6236: RevMed PRISM: AUC (ICC137_BILIARY_TRACT): 0.6956 | RMC-6236: RevMed PRISM: AUC (IGR1_SKIN): 0.9058 | RMC-6236: RevMed PRISM: AUC (IGR37_SKIN): 1 | RMC-6236: RevMed PRISM: AUC (IGROV1_OVARY): 0.8942 | RMC-6236: RevMed PRISM: AUC (IM95_STOMACH): 0.6295 | RMC-6236: RevMed PRISM: AUC (IPC298_SKIN, NRAS p.Q61L): 0.4786 | RMC-6236: RevMed PRISM: AUC (ISTMES2_PLEURA): 0.9791 | RMC-6236: RevMed PRISM: AUC (JEKO1_HAEMATOPOIETIC_AND_LYMPHOID_TISSUE): 0.917 | RMC-6236: RevMed PRISM: AUC (JHH1_LIVER): 0.5417 | RMC-6236: RevMed PRISM: AUC (JHH4_LIVER): 0.9202 | RMC-6236: RevMed PRISM: AUC (JHH5_LIVER): 0.5324 | RMC-6236: RevMed PRISM: AUC (JHH7_LIVER): 0.7752 | RMC-6236: RevMed PRISM: AUC (JHOM1_OVARY): 0.8164 | RMC-6236: RevMed PRISM: AUC (JHOS2_OVARY): 0.7954 | RMC-6236: RevMed PRISM: AUC (JIMT1_BREAST): 0.7018
